Tests used:
[1] = test system: 293T-lacZ cells expressing human LAG-3; assay: In vitro ADCC assay, human PBMC effector cells, β-galactosidase release; format: cell-based; settings: target 293T-lacZ/hLAG-3 cells, effector human PBMCs, percentage of cells lysed
Method: 293FT cells (Invitrogen Corp.) were transfected with pLenti6/V5-GW/lacZ, and ViraPower™ Packaging Mix (Invitrogen Corp.) according to the accompanying protocols to prepare a recombinant lentivirus to express the β-galactosidase gene. 293T cells were infected by the obtained recombinant lentivirus according to the protocol of ViraPower Lentiviral Expression Systems (Invitrogen Corp). Virus-infected cells were selected using 10 μg/mL blasticidin (Invitrogen Corp.) to obtain a line stably expressing β-galactosidase. An expression plasmid of the full-length human LAG-3 was introduced into the 293T cells stably expressing β-galactosidase (hereinafter, referred to as 293T-lacZ) using Lipofectamine 2000 (manufactured by Invitrogen Corp.), and the cells were cultured for 1 day and then dissociated and recovered using TrypLExpress (manufactured by Invitrogen Corp). The cells were washed twice with phenol red-free RPMI1640 containing 5% FBS (hereinafter, referred to as a “medium for ADCC”). The number of live cells was counted by the trypan blue dye exclusion test. The cells were resuspended to 1×10^5 cells/ml in a medium for ADCC and used as target cells.
PBMCs were separated from human peripheral blood by Ficoll centrifugation, and a suspension adjusted to a live cell density of 1.2×10^6 cells/mL in a medium for ADCC was used as effector cells.
The ADCC activity of the purified rat anti-human LAG-3 antibodies rLA204, rLA212, rLA225, rLA869, and rLA1264 was investigated by the following method. To a 96-well U-bottom microplate containing 50 μL/well of the antibody solution, was added 50 μL/well of the target cells (which will be hereinafter referred to as 293T-lacZ/hLAG-3 cells) of Example 1)-5-1, followed by standing at 4° C. for 30 minutes. Then, 75 μL/well of effector cells prepared as in Example 1)-5-2 (which was however suspended to 2×10^6 cells/mL) was added thereto, followed by centrifugation at room temperature at 1200 rpm for 5 minutes, and thereafter the cells were cultured overnight under conditions of 37° C. and 5% CO2. On the next day, 50 μl of the supernatant was recovered into a black plate (manufactured by Corning Inc). A solution of β-Glo assay system (manufactured by Promega Corp.) was added thereto at 50 μl/well. The luminescence intensity was measured using a plate reader (ENVISION; manufactured by PerkinElmer, Inc). The percentage of cells lysed by ADCC activity was calculated according to the following formula. Percentage of cells lysed (%)=(A−B)/(C−B)×100 • A: Count of each sample well • B: Average of spontaneous release (wells without antibody added) counts (n=3)
When adding the antibody, 50 μL of a medium for ADCC was added thereto. Except for that, the same operation as in the sample well was performed.
C: Average of maximum release (wells containing target cells lysed with a surfactant) counts (n=3)
When adding the antibody and adding the effector cells, 50 μL and 75 μL of a medium for ADCC were added thereto respectively. For the assay, 175 μl of the β-Glo assay system solution was added to each well containing the target cells and mixed therewith. A 100 μl aliquot thereof was added to a black plate to carry out the assay.
The ADCC activity of the humanized anti-human LAG-3 antibodies (hLA212) was investigated by the method described in Example 2)-2.
The in vitro ADCC activity of the humanized anti-human LAG-3 antibody hLA212_H4/L2 was evaluated by the method described in Example 7)-2.

[2] = target: T1, human LAG-3 expressed on 293T-lacZ cells (Homo sapiens, UniProt P18627); assay: Binding activity to 293T-lacZ cells expressing human LAG-3 by flow cytometry; settings: mean fluorescence intensity
T1 construct: An expression plasmid of the full-length human LAG-3 was introduced into the 293T cells stably expressing β-galactosidase; expressed in transfected cells; host or cells: 293T-lacZ cells (293T stably expressing β-galactosidase), transient transfection
T1 sequence (P18627 23-525): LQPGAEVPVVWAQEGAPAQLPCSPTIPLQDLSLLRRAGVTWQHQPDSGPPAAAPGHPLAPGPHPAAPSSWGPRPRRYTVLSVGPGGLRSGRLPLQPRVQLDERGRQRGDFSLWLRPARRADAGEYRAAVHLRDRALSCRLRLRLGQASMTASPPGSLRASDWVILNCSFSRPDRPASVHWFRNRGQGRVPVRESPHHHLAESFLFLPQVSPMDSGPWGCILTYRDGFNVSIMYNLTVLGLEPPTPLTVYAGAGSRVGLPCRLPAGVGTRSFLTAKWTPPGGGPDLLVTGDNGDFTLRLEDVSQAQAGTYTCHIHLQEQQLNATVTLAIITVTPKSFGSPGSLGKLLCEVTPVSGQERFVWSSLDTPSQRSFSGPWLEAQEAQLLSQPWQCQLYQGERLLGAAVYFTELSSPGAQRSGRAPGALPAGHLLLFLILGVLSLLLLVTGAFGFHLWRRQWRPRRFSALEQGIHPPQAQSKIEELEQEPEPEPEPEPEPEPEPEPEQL
Method: (§1) The expression plasmid pcDNA3.1-hLAG-3 of human LAG-3 was introduced into the 293T-lacZ cells (described in Example 1)-5-1), using Lipofectamine 2000 (manufactured by Invitrogen Corp.), and the cells were cultured for 1 day and thereafter used for flow cytometry. The flow cytometry was performed according to the method described in Example 1)-4, except that an Anti-Human IgG PE conjugate (manufactured by Jackson ImmunoResearch Laboratories, Inc.) diluted 200-fold with a FACS buffer was used as the secondary antibody.
as §1, with “human LAG-3-expression” for “expression”, “pcDNA3.1/hLAG-3” for “pcDNA3.1-hLAG-3 of human LAG-3”, “but” for “except that”
The binding of the humanized anti-human LAG-3 antibody hLA212_H4/L2 to human LAG-3-expressing 293T-lacZ cells was investigated by flow cytometry according to the method described in Example 7)-2.

B1: hLA212_H3/L4: humanized antibody; heavy chain positions 20 to 470 of SEQ ID No: 30, light chain positions 21 to 234 of SEQ ID No: 38 (antibody)
heavy: EVQLVESGGGLVQPGGSLRLSCAASGFTYRSYVMAWVRQAPGKGLEWVASISTGGGNTYYRDSVKGRFTISRDNAKNTLYLQMDSLRAEDTAVYYCAEDMSNSGYGLFDYWGQGTLVTVSSASTKGPSVFPLAPSSKSTSGGTAALGCLVKDYFPEPVTVSWNSGALTSGVHTFPAVLQSSGLYSLSSVVTVPSSSLGTQTYICNVNHKPSNTKVDKRV[left out - human IgG1 Fc]
light: DIQMTQSPSSMSISVGDRVTMTCKAGQNVDNNIAWYQKKPGQSPKLLIYYASNRNTGVPSRFSGSGSGTDFTLTISSVQPEDFATYYCQRISNSPYTFGQGTKLELKRTVAAPSVFIFPPSDEQLKSGTASVVCLLNNFYPREAKVQWKVDNALQSGNSQESVTEQDSKDSTYSLSSTLTLSKADYEKHKVYACEVTHQGLSSPVTKSFNRGEC
ADCC activity on cells expressing human LAG-3 [1]: concentration-dependent ADCC activity against the 293T-lacZ cells expressing human LAG-3, almost comparable to the human chimeric anti-LAG-3 antibody cLA212
binding activity to 293T-lacZ cells expressing human LAG-3 [2]: concentration-dependent binding activity to the 293T-lacZ cells expressing human LAG-3, comparable to the human chimeric anti-LAG-3 antibody cLA212

— patent US12145987B2, “Method for depleting cytotoxic T cells using an anti-LAG-3 antibody composition” (Daiichi Sankyo Company, Limited, priority 2017, dated 2024)
